Assay results as given in ChEMBL document CHEMBL4888484, “Replenishing the malaria drug discovery pipeline: Screening and hit evaluation of the MMV Hit Generation Library 1 (HGL1) against asexual blood stage Plasmodium falciparum ,using a nano luciferase reporter read-out” (2022).
Screen size: about 4,800 compounds; about 420 (8.8%) showed an effect of 50% or more. This is one part of the list.

test system: Plasmodium falciparum; experiment: Confirmatory screen in NF54 nanoGlo assay, in single point, at 2uM, 72h; assay type: functional, Erythrocyte; conditions: timepoint 72 hour

SMILES	% Inhibition [%]
Cc1c(CCO)c(=O)n(-c2ccccc2)n1S(=O)(=O)c1c(Cl)cc(Cl)cc1Cl	-7
CC[n+]1c(C)sc2cc(-c3ccccc3)sc21	-15
CCC[C@@]1(C)C(=O)NCCN1Cc1nnc(-c2ccc(Cl)cc2)n1C	-10
Cc1cc(CS(=O)(=O)N2CCC[C@H]2c2noc(C)n2)no1	4
O=C(c1ccc2c(c1)OCO2)N1CCn2c1nc1ccccc12	65
Cc1ccccc1Nc1nnc(-c2ccccc2)c(-c2ccccc2)n1	3
O=C(CC(F)(F)F)NCc1ccccn1	1
O=C(CN1CCCC1)N1CCCN(S(=O)(=O)c2ccccc2)[C@H]1c1ccccc1	-7
Cn1cc(-c2csc(NC(=O)c3ccc4[nH]cnc4c3)n2)cn1	8
COc1ccc2cc3n(c2c1)C[C@](C(=O)NC1CCCCCC1)(c1ccccc1)N(Cc1ccc(OC(C)C)cc1)C3=O	-14
CC1CCC2(C)c3[nH]c4ccccc4c3CCCN2C1=O (centres undefined)	-6
C[C@@]1(C(N)=O)CCCCN1Cc1cncs1	-3
Cc1cnc(C)c(N2CCCN(c3cncc(F)c3)CC2)n1	-10
COc1nscc1CN(C)C(=O)c1ccc2c(c1)C(C)(C)CO2	-11
Cn1c(=O)n(C)c2cc3c(cc21)NC(=O)CS3(=O)=O	3
Cc1nn(C)c(N)c1C(=O)N(C1CCC1)C1CCC1	-12
CC(C(=O)Nc1cc(F)ccc1F)N1CCCC(c2nncn2C(C)C)C1 (centres undefined)	-3
O=C(O)CC1(NC(=O)c2cc(Oc3ccccc3)ccn2)CCC1	-7
Cc1cc(C)n(-c2nc(Nc3ccc(Cl)cc3)nc(Nc3ccc(Cl)cc3)n2)n1	82
O=C(OCc1cncs1)c1ccccc1	2
Cn1n[n+](CC(=O)Nc2ccccc2Cl)c2ccccc21	-5
COc1ccc(CN2CC[C@@H]3C(=O)NCCCCCCN(Cc4ccncc4)[C@@H]3C2)cc1Cn1ccnc1	47
O=C(COC(F)F)N1CCc2ccncc21	-6
O=C(Nc1cccc2[nH]ncc12)c1ccco1	-4
COc1ncnc(OC)c1CNc1cnn(C)c1	-2
CC[C@](C)(NCC#Cc1ccc(C(F)(F)F)cc1)C(N)=O	0

SMILES	% Inhibition [%]
CCn1ccc([C@H](C)NC(=O)c2cc(-c3ccc(OC)cc3)nc3c2c(C)nn3C)n1	8
O=C(NCC(=O)N1CCC[C@H]1c1ccc2c(c1)OCCCO2)c1ccc(Br)cc1	-13
Cc1cc(C)cc(NC(=O)CCn2c(=O)cc(C(F)(F)F)c3cn(C(C)C)nc32)c1	-14
O=C1NC(=O)[C@@H]2CN(S(=O)(=O)c3cc(F)cc(Cl)c3)C[C@H]12	-6
C[C@H](Nc1ccc(N2CCOCC2)nc1)c1cccc(CO)c1	-1
O=C(NCCCc1ccccc1)c1ccc(CN2C(=O)CCn3nccc32)cc1	24
Cc1cccc(CN2C[C@@H](c3noc(-c4ccccn4)n3)CC2=O)c1	-1
CCc1nccn1CC(=O)Nc1cc(C)nn1C	-16
CCCNC(=O)CS(=O)(=O)Cc1cccc(Br)c1C	-18
COc1ccc(CN2CCc3nn(CC4CC4)c(=O)n3CC2)cc1	-10
CCN1c2cc(C)ccc2-n2cccc2C12CCNCC2	-5
Cc1cccc(N2C(=O)c3cc(Br)ccc3N[C@@H]2c2ccc(N(C)C)cc2)c1	-2
CCN1c2cc(C(=O)NCc3ccccc3C)ccc2C(=O)N2CCCC[C@H]21	-3
CC(C)[C@H](NC(=O)c1ccc(Cl)cc1Cl)C(=O)O	-7
CCOc1ccc(NC(=O)c2cn3nc(-c4ccc(OCC)cc4)cc3nc2C2CCN(C(=O)OC(C)(C)C)CC2)cc1	42
CCc1c2c(=O)n(-c3ccc(F)cc3)[nH]c2cc(=O)n1Cc1ccccc1	4
CC(C)(C)CC(=O)Nc1ccc2c(c1)C(N1CCCCC1)=Nc1ccccc1O2	-13
CCC(=O)N1CCC[C@H](OCc2ccccc2Cl)C1	-1
CC(C)[C@H](Nc1ccc2nccnc2n1)c1nnc2n1CCC2	-8
COc1cccc(NC(=O)c2ccc3c(c2)N(C)[C@@H]2CCCCCN2C3=O)c1	5
COCc1nsc(N2CCC(c3c(F)cccc3F)CC2)n1	-5
Cc1cc(NC(=O)CNC2C(C)CCN(C(=O)OC(C)(C)C)C2C)n(C(C)(C)C)n1 (centres undefined)	-11
C[C@@H](C(=O)Nc1nc(-c2ccccn2)cs1)n1nc2c(cc1=O)CCC2	17
Cc1c(NC(=O)[C@H]2CCc3nnc(C4CCOCC4)n3CC2)cccc1C(F)(F)F	-13
CC1=CN(O)[C@H](c2ccc(O)cc2)N=N1	-17
C[C@H]1CCC[C@@H](NCCc2ccccc2)CCC/C=C/c2cc(O)cc(O)c2C(=O)O1	77

SMILES	% Inhibition [%]
Cc1cccc(C(=O)Oc2ccc(-n3ccnc3)cc2)c1	3
O=c1cc2n(c(=O)[nH]1)CC(c1ccccc1)=NN2	4
Cc1cn2c(S(=O)(=O)NCc3ccco3)c(C(C)C)nc2s1	-2
Cc1nnc2sc(Nc3ccccc3)nn12	-2
Cc1noc([C@@H](C)NC(=O)CC(C)C)c1C(=O)O	11
NC(=O)[C@@H]1CN(C(=O)c2ccc(Br)cc2Oc2ccc(F)cc2)CCO1	0
Cc1ccccc1C(=O)Nc1nnc(Cc2nc3ccccc3s2)s1	-10
O=C1C2C3C=CC(C3=C3CCCCC3)C2C(=O)N1c1cccc(Cl)c1 (centres undefined)	9
CCc1nc(NC(=O)C(=O)Nc2cc(C)on2)sc1C	0
O=C(N[C@H]1CCCc2occc21)c1ccco1	0
CCN1CCC[C@@H]1CNCc1ccc2c(c1)OCCO2	2
Cc1cc(CN(C)Cc2nccn2C)ccc1N1CCCCC1	-1
O=C(NCc1ccc(F)cc1F)[C@H]1CCCN(c2cn[nH]c(=O)c2)C1	-11
COc1ccc(OC)c([C@H](c2cc3c(cc2O)OCO3)N2CCCC2)c1	3
CC[C@H]1CN2C=NC(N3CCN(C(=O)Cc4ccccc4)CC3)=CC2=N1	21
Cc1csc(CNC(=O)C(=O)Nc2ccc3c(c2)C(=O)N(C)C3=O)n1	-1
COc1cccc(OS(=O)(=O)Cc2ccon2)c1	1
Cn1cnn(CC(=O)N2CCc3sccc3C2)c1=O	3
CCOc1ccc(C(N)=O)cc1Br	-5
Cc1ccc(CNC(=O)C[C@H]2CCS(=O)(=O)C2)cc1	-17
Cn1ccc2cccc(NC(=O)N3CC(C)(CO)C3)c21	1
O=c1[nH]c(=O)n(Cc2cc(Cl)cc3c2OCOC3)cc1Cl	0
CC1CN(Cc2ccccc2)CC(C)C1NC(=O)c1ccncc1F (centres undefined)	-4
CC(C)(C)C(=O)N1CCC(O)(CS(=O)(=O)Cc2ccccc2)CC1	2
c1ccc(-c2nc(C[n+]3ccc4c(c3)CCCC4)cs2)cc1	57
NC(=NCc1cccc2cccnc12)N1CCN(c2nccs2)CC1	57

SMILES	% Inhibition [%]
COc1ccc2c(c1)[n+](CC(=O)c1ccc(-c3ccc(Br)cc3)cc1)c(CO)n2C	46
CCOc1cc(CNCCN2CCOCC2)cc(Cl)c1OCc1ccccc1	-1
O=C(Cn1cccc1-c1nc(-c2ccc(F)c(Br)c2)no1)N1CCc2ccccc2C1	1
O=C([C@@H]1CNc2ccccc2O1)N1CCOCC1	-1
C[C@@H]1CN(CCN(C)C(=O)Nc2nc(C3CC3)cs2)C[C@H](C)O1	8
CC1CCC(N(C)C(=O)c2cc(S(=O)(=O)N3CCCCC3)ccc2N2CCCC2)CC1 (centres undefined)	-22
O=S(=O)(N[C@H](c1nccs1)C1CC1)c1c(F)cccc1Cl	0
Cc1ccc(-c2cc(O)cc(CC[C@H]3CCCCN3)c2)c(C)n1	53
Cc1ccc(S(=O)(=O)Cc2nc(-c3ccc(C(=O)Nc4ccc(C)cc4Cl)cc3)oc2C)cc1	5
Cn1c(CNC(=O)NCc2cc(Cl)c(Cl)n2C)cc(Cl)c1Cl	5
CCC(=O)NCCNC(=O)c1ccco1	6
CCCN1CCN(S(=O)(=O)c2cccc3nonc23)CC1	3
Cc1nsc(N2CCCC(C(C)NC(=O)OC(C)(C)C)C2)n1 (centres undefined)	-7
COc1nc(N2[C@@H]3CC[C@H]2C[C@@H](OC)C3)ncc1F	62
CS(=O)(=O)CC1(CC(=O)N[C@H](c2ccccc2)C2CCC2)CC1	5
Cc1nsc2ncc(C(=O)N3CCC(C)CC3)c(N3CCC(C(=O)Nc4cc(F)ccc4F)CC3)c12	60
Cc1cncc(C=Cc2c(Cl)cccc2Cl)n1	-15
CCC(CC)N1CC(C(=O)NC2COc3ccc(C)cc32)CC1=O (centres undefined)	-10
Cc1c(C(=O)N2CC[C@H](CC(C)(C)C)C2(C)C)nnn1-c1cnn(C)c1	-10
CCN1CCN(c2nc3ncn(CC(=O)NCCc4ccc(Cl)cc4)c(=O)c3s2)CC1	25
CC(C)c1ccc(-c2nc(CNc3cc4c(cc3Cl)NC(=O)CO4)cs2)cc1	-3
Cc1cccc(NS(=O)(=O)c2ccc3nncn3c2)c1	-16
Cc1nn(C)c(NC(=O)c2ccc(Cl)cc2)c1C1=CCCCC1	-10
COc1ccc(NC(=O)[C@@H](c2cc(OC)c(OC)c(OC)c2)N(Cc2ccccc2)C(=O)Cn2nnc3ccccc32)cc1	-11
CCOC(=O)C(F)(F)[C@@H](NCC(=O)OC)C1CC1	-15
CN(C(=O)c1n[nH]c2c1CCC2)[C@H]1CCCc2c1cnn2C	-13
